From PubChem BioAssay (NCI)
Values joined by “and” are separate entries in the source; they are usually repeats but may differ in a detail not shown here. Identical values can stand only once.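 Compound exposure: 48 hours, 5 concentrations, 96-well plates. GI50 = concentration required for 50% inhibition of growth. TGI is the concentration that stops growth completely.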 Numbered stars: 1 amine (or outer) side, 2 acyl side, 3 side chain; on linkers, the order of the positions; unused ones are H or OH. Bridge positions count the residues as written; N and C are the ends. Square brackets hold non-standard residues; d marks the D form. Peptide text beside a SMILES is read from it. * marks the point of attachment. Phe(3,5-F2) = N[C@@H](Cc1cc(F)cc(F)c1)C(=O)O; Pro(4R-Me) = C[C@H]1CN[C@H](C(=O)O)C1; aThr = C[C@H](O)[C@H](N)C(=O)O; NMeAc5c = CNC1(C(=O)O)CCCC1; Pip = O=C(O)[C@@H]1CCCCN1; X8 = Fc1cc(C2CC2)ccc1N*; Boc = CC(C)(C)OC(=O)*; CO = O=C([*:1])[*:2]; OBn = c1ccc(CO*)cc1

Tested on: NCI-H322M lung
Assay: NCI anticancer screen, dose series, 48 h

SMILES	TGI	GI50 [µM]
CCOC(=O)CCC1(C(=O)OCC)CCCCC1=O (stereo not drawn)	> 100 µM	
Cc1ccnc2c1ccc1c(C)ccnc12	11.8 µM	0.451
CCCN(C(=O)c1ccccc1)C(C#N)c1ccc(C(C#N)N(CCC)C(=O)c2ccccc2)cc1 (stereo not drawn)	> 100 µM	
CC(C)CCS(=O)(=O)OCCCCOS(=O)(=O)CCC(C)C	> 100 µM	
O=C(Nc1ccc(-n2ccc3c(NC(=O)c4ccccc4)nccc32)cc1)c1ccc(Cl)c(C(F)(F)F)c1	> 30.5 µM	6.88
O=C1CSC(c2ccc(Cl)cc2)N1c1ccc(Oc2ccc(Cl)cc2)c(Cl)c1 (stereo not drawn)	28.7 µM	
CC(=O)OC1OC([C@@H]2c3cccc(O)c3C(=O)c3c(O)cc(C)cc32)C(O)C(O)C1O (stereo partly drawn)	0.31 µM	< 0.0202
C1CN(c2nc3c(nnc4nc(N5CCOCC5)sc43)s2)CCO1	> 100 µM	
COC(=O)C([C@H](NC1(c2ccccc2)c2ccccc2-c2ccccc21)C(=O)OC)N(NC(=O)OCc1ccccc1)C(=O)OCc1ccccc1 (mixture of isomers)	> 100 µM	
COc1ccc(-c2c(C#N)c(-c3ccc(C)cc3)n(NS(=O)(=O)c3ccc(C)cc3)c(=O)c2C#N)cc1	> 100 µM	
CC(C)(C)N1CSC(=S)N(Cc2ccco2)C1	25.9 µM	
O=c1c2cc([N+](=O)[O-])cnc2sn1-c1ccc([N+](=O)[O-])cc1	> 100 µM	
S=C1Nc2ccccc2SC1c1ccccc1 (stereo not drawn)	> 100 µM	
COC(=O)c1cc(=O)nc2sc3cccc(C)c3n12	> 100 µM	
Cc1cc(Cc2cc(C)c(N)cc2N)c(N)cc1N	> 100 µM	
COc1ccc(-c2cc(O)c3nc4ccccc4n3c2)cc1	> 100 µM	
COc1ccccc1N1C(=O)C2c3[nH]c4ccccc4c3C3CCC(C(C)(C)C)CC3C2C1=O (stereo not drawn)	> 100 µM	
NC(N)=N/N=C/c1c(-c2ccc(N)cc2)nc2sccn12	46.4 µM	
CCOC(=O)C(SCCO)C(C(=O)OCC)n1cnc2c(=O)[nH]c(NC(C)=O)nc21 (stereo not drawn)	> 100 µM	
Cc1ccc(Cl)c2[nH]c(-c3ccccc3)cc(=O)c12	> 100 µM	
COC(=O)c1ccccc1NC(=O)C(=O)Cc1nc2c3c(ccc2[nH]c1=O)C(=O)c1ccccc1C3=O	51.5 µM	
NS(=O)(=O)OC[C@@H]1C[C@@H](n2ccc3c(NC4CCc5ccccc54)ncnc32)C[C@@H]1O (stereo partly drawn)	> 100 µM	15.6

SMILES	TGI	GI50 [µM]
CCOC1Oc2ccccc2C(=O)/C1=C/Nc1ccc(C(C)=O)cc1 (stereo not drawn)	60.3 µM	21.9
Cc1ccc(C(=O)O)cc1S(=O)(=O)Nn1cnc2ccc(S(=O)(=O)Nc3ccccc3C(=O)O)cc2c1=O	> 100 µM	
CC1(C)OC(=O)N(c2ccccc2)C12C=Cc1cc([N+](=O)[O-])cc([N+](=O)[O-])c1O2 (stereo not drawn)	> 100 µM	
CCN1/C(=C\c2cc[n+](CC)c3ccccc23)C=Cc2ccccc21	11.8 µM	0.413
Cc1cc(-c2nc(C(=O)Nc3cc4oc(N5CCOCC5)nc4nc3N3CC[C@@H](O)C3)co2)ccn1	> 100 µM	29.3
COc1cc2c(c(OC)c1OC)-c1ccc(NNC(N)=S)c(=O)cc1[C@@H](NC(C)=O)CC2	> 100 µM	1.11
CN(C(=O)C(Cc1ccccc1)NC(=O)OC(C)(C)C)C1(C(=O)NC(Cc2ccccc2)C(=O)OCc2ccccc2)CCCC1 (stereo not drawn) (Boc-Phe-[NMeAc5c]-Phe-OBn; configuration not given here)	> 100 µM	
Cc1c(O)c(O)cc[n+]1C1OC(CO)C(O)C1O (stereo not drawn)	> 100 µM	
CN1CCc2cc(N)cc3c2C1Cc1ccc(O)c(O)c1-3 (stereo not drawn)	> 100 µM	
COc1ccc2c(c1)/C(=C/CCN(C)C)c1ccccc1S2	> 100 µM	
Fc1[nH]nc2ccc([C@@H]3Nc4ccc5[nH]ncc5c4[C@H]4C5CCC(C5)[C@@H]34)cc12 (stereo partly drawn)	17.3 µM	4.93
CCn1c(C)nn2c(=O)c3ccccc3nc2c1=O	> 100 µM	
O=C1CC(NC(=O)C(F)(F)F)c2c(Br)sc(N3CCNCC3)c21 (stereo not drawn)	> 100 µM	
COC(=O)C1(C(C)C)CCc2c(OC)ccc(OC)c2C1=O (stereo not drawn)	> 100 µM	
C[C@@H]1C[C@H]2C(=O)O[C@@H](C)[C@H](NC(=O)[C@H](Cc3cc(F)cc(F)c3)NC(=O)Nc3ccc(C4CC4)cc3F)C(=O)N3CCC[C@H]3C(=O)N3CCCC[C@H]3C(=O)N[C@@H](C)C(=O)N2C1 ({X8-CO}-[Phe(3,5-F2)][aThr]P[Pip]A[Pro(4R-Me)]; ester 2-C)	13.4 µM	0.149
O=C1CCCc2cc3c(cc21)CC1(Cc2ccccc2C1)C3	31.3 µM	
CC(C)=CCc1c2c(c3occ(-c4ccc(O)cc4)c(=O)c3c1O)CC(C(C)(C)O)O2 (stereo not drawn)	19.6 µM	
CCOC(=O)/C=C/CC(C)(C)CCOC(C)=O	> 10 µM	
COc1cc2cc(OC)c3cc4c(cc3c2c(OC)c1OC)OCO4	> 100 µM	
COc1ccc(C2CC(c3c(O)ccc4ccccc34)=NN2C(C)=O)cc1OC (stereo not drawn)	> 100 µM	
COCO[C@@H]1C[C@H]2C(=O)Nc3ccccc3C(=O)N2C1	> 100 µM	
Nc1c(C(=O)c2cccc(CCS(N)(=O)=O)c2)cnn1-c1ccc(F)cc1	> 25 µM	> 25

SMILES	TGI	GI50 [µM]
C#CCNC(CS)C(=O)O (stereo not drawn)	> 100 µM	
Cn1cc(C2=C(c3c4n(c5ccccc35)CCCCC4)C(=O)NC2=O)c2ccccc21	> 25 µM	13.5
O=C(CCN1CCCCC1)C(=Cc1ccccc1)C(=O)CCN1CCCCC1	> 100 µM	
OCc1cc2ccccc2c2c3c(ccc12)OCO3	208 µM	40.3
N#Cc1c(N2CCCC2)ncn(-c2ccccc2)c1=O	> 100 µM	
Cc1cnc(NCCCN(C)C)c2c1[nH]c1ccc3cc(O)ccc3c12	2.8 µM	
NC(N)=NS(=O)(=O)c1ccc(Nc2c3ccccc3nc3c(C(=O)NCCO)cccc23)cc1		18.5
CCCCCCCCCCCCCC(=O)OC(/C=C/C(C)C)C(O)C(O)C(OC)C(=O)NC1CCCCN(C)C1=O (stereo not drawn)	13.9 µM and > 49 µM	> 49
COc1cc(/C=N\NC(=O)CN2CCN(c3cc4c(cc3F)c(=O)c(C(=O)N/N=C/c3cc(OC)c(OC)c(OC)c3)cn4C3CC3)CC2)cc(OC)c1OC	> 100 µM	0.45
O=C1NC(=NCCc2cccc(F)c2)S/C1=C\c1ccc2ncccc2c1	> 25 µM	> 23.7
CC(=O)O[C@@H]1[C@H](C(C)C)[C@@H](OC(C)=O)C/C(C)=C/CC[C@]2(C)O[C@@H]12	> 100 µM	
CCCCC#C[I+]c1ccccc1	29.9 µM	
COc1cccc(C2c3cc4c(cc3OC(C)(N3CCCC3)C2C)OCO4)c1O (stereo not drawn)	12.7 µM	
O=[N+]([O-])c1cccc(-c2csc(NNC3=NC/C(=C/c4ccc5c(c4)OCO5)S3)n2)c1	> 100 µM	
FC(F)(F)c1cccc(Nc2nc(-c3ccccc3)nc3ncccc23)c1	40.7 µM	12.1
Cc1nc2sccn2c1-c1csc(Nc2ccccc2Cl)n1	> 100 µM	10.1
O=[N+]([O-])c1ccc2c(c1)/C(=N/N=C1c3ccccc3Cc3ccccc31)c1cc([N+](=O)[O-])cc([N+](=O)[O-])c1-2	7.95 µM	
CCC(=O)[C@H](C)[C@@H](OC(=O)[C@H](C)CC)[C@H](C)[C@H]1OC(CC)=C(C)C(=O)[C@@H]1C	> 100 µM	31
CN(C)c1ccc(/C=C\C2=[N+](C)c3ccccc3C2(C)C)cc1	29.3 µM	2.16
COc1cc(Br)cc2cc(-c3cn4ccsc4n3)c(=O)oc12	> 100 µM	
O=c1[nH]c(Nc2cccc(CC(F)(F)F)c2)nc2nc[nH]c12	> 100 µM	
O=c1ccc(-c2ccccc2)n[nH]1	> 100 µM	

SMILES	TGI	GI50 [µM]
O=C1C=CC(=O)c2c1ccc1c3ccccc3n(CCCCCCCCCCCCn3c4ccccc4c4ccc5c(c43)C(=O)C=CC5=O)c21	> 100 µM	
COC([CH2][Hg][n]1cnc2c1c(=O)n(C)c(=O)n2C)CN1C(=O)c2ccccc2S1(=O)=O (stereo not drawn)	> 100 µM	> 100
CCCC1C(=O)CCc2c(OC)ccc(OC)c21 (stereo not drawn)	> 100 µM	
C=CC1(C)CCC2C(=CCC3C2(C)CC(O)C(O)C3(C)COC2OC(C(=O)O)C(O)C(O)C2O)C1 (stereo not drawn) (tested in a mixture with another compound)	> 100 µM	
CNS(=O)(=O)NNS(=O)(=O)c1ccccc1	> 100 µM	
C1=C2/CC[C@H](Sc3ccccc3)C2C2(CCCCC/1)OCCO2 (stereo partly drawn)	> 100 µM	
COc1ccc(N/N=C2\CCOc3ccc(C)cc3C2=O)cc1	> 100 µM	
O=C(O)CCNCCCNCCC(=O)O	> 100 µM	
C[C@]12CCC(O)CC1=CC[C@@H]1[C@@H]2CC[C@]2(C)C(=O)[C@H](n3ccnc3)C[C@@H]12 (stereo partly drawn)	> 100 µM	
c1csc(-c2ccc(-c3cccc4nsnc34)s2)c1	> 100 µM	
COc1ccc(CC2c3cc4c(cc3CCN2C)OCO4)c(C=O)c1OC (stereo not drawn)	> 100 µM	
Cc1ccc(N=NC(=Nc2ccccc2)c2ccc(N(CCC#N)CCC#N)cc2)cc1	> 100 µM	
C=CCN1C[C@H](C)N([C@H](c2ccc(C(=O)NC(CC)CC)cc2)c2cccc(OC)c2)C[C@H]1C	> 100 µM	
Cc1nc2n(c1/C=C1/C(=O)Nc3cccc(Cl)c31)CCS2	> 100 µM	
CCOC(=O)C(C)(C)Oc1ccc2c(-c3ccccc3)cc(=O)oc2c1	> 100 µM	
Fc1ccc(NC(=S)SCc2ccc3c(c2)OCO3)cc1F	79.7 µM	
CC(C)(C)OC(=O)NCCCCC1NC(=O)[C@@H]2Cc3c([nH]c4ccccc34)C(C3CCCCC3)N2C1=O (stereo partly drawn)	> 100 µM	
Cc1n[nH]c(=O)n1/N=C/c1ccc(Cl)cc1	> 100 µM	
NC(=O)NCCCC(NC(=O)OCCCCn1ccc(=O)[nH]c1=O)C(=O)O (stereo not drawn)	> 100 µM	
Cc1ccc(CN2CCC(C(=O)Nc3ccc(-c4cc5ccccc5[nH]4)cc3)CC2)o1	> 100 µM	> 100
